The campaign covered roughly 310,000 compounds. About 14,000 (4.5%) showed an effect of 50% or more. Effects have a minus sign here. This is one part of the list.
biological target: human ether-à-go-go-related gene (hERG) potassium channel (human, UniProt Q12809); experiment: primary screen, population patch clamp on CHO cells stably expressing hERG
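Further: peak tail current of the secondary pulse compared with the same well before compound.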

human ether-à-go-go-related gene (hERG) potassium channel, sequence (Q12809 whole entry, looked up): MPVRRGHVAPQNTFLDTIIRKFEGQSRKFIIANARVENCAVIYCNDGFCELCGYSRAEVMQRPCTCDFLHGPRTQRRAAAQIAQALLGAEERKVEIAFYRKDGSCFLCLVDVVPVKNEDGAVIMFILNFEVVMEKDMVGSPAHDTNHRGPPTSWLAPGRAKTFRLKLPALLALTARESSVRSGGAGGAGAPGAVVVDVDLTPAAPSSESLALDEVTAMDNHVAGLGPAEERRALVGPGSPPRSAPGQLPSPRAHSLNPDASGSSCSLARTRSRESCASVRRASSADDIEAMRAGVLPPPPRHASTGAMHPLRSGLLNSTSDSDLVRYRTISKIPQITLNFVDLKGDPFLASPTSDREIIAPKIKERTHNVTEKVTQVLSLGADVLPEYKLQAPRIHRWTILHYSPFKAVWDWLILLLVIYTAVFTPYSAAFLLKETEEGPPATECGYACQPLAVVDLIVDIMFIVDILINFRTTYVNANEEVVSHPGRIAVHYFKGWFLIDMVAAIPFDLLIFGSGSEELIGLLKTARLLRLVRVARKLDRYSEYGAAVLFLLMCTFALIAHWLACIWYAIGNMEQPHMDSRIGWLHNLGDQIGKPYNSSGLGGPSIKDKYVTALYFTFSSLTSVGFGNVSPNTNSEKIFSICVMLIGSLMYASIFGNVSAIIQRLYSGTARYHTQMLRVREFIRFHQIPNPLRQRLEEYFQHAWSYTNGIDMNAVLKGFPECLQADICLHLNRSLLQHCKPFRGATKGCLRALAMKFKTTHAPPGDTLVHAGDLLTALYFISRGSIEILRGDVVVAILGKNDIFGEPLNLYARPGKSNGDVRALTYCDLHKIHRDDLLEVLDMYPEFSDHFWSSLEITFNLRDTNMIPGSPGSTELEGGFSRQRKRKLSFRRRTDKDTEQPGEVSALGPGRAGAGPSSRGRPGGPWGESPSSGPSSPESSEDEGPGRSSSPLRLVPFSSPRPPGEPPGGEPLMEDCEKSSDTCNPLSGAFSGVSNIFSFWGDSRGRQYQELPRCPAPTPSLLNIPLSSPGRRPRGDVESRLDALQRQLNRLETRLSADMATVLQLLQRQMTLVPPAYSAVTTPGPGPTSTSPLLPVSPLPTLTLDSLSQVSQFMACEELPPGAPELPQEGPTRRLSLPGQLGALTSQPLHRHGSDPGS

| Compound | hERG current change (%, negative = inhibition) at 10uM [%] |
| --- | --- |
| CCOC(=O)/C=C1\SCC(=O)N1CC(=O)N1CCOCC1 | 24.8 |
| O=C(O)c1ccccc1C(=O)NCc1ccc2c(c1)OCO2 | 11 |
| CC1CCc2c(sc(NC(=O)c3ccc(-c4ccccc4[N+](=O)[O-])o3)c2C#N)C1 (centres unmarked) | 18.6 |
| CCn1c(SCc2nc3cc(OC)c(OC)cc3c(=O)[nH]2)nc2ccccc21 | 12.2 |
| O=S(=O)(NCCSc1nnnn1-c1ccccc1)c1cccs1 | -18.9 |
| COc1nc(OC)nc(N2CCC(C(=O)Nc3cccc4c3CCCC4)CC2)n1 | -2.3 |
| COc1ccc(N2CC(C(=O)O)CC2=O)cc1 (centres unmarked) | 21.1 |
| CCN(CC)S(=O)(=O)c1cccc(NC(=O)c2cc(=O)[nH]c3ccccc23)c1 | -26 |
| CCCn1c(=O)[nH]c(=O)c2c1nc(-c1ccc(OC(F)F)c(OC)c1)n2CCOC | -50.5 |
| CC(N=C1CC(C)(C)CC(=O)/C1=C(/O)CCCN1C(=O)c2ccccc2C1=O)C(=O)O (centres unmarked) | 16.1 |
| NC(=O)C1CCN(c2nc(-c3ccccc3)nc3ccccc23)CC1 | -56 |
| Cc1ccc(CN2CCN(Cc3cn(C)nc3C)CC2CCO)o1 (centres unmarked) | 12.4 |
| CN(C(=O)c1cnccn1)c1c(N)n(Cc2ccccc2)c(=O)[nH]c1=O | 3.69 |
| Cc1ccsc1C(=O)N1CCN(c2ncccn2)CC1 | 7.76 |
| CN1CCN(c2ccc(NC(=O)c3ccc4c(c3)[nH]c(=O)n4Cc3ccc(F)cc3)cc2)CC1 | -1.93 |
| Cc1ccccc1OCC(=O)Nc1ccc(C)c(S(=O)(=O)N2CCCCCC2)c1 | -15.4 |
| CCn1c(SCC(=O)Nc2cccc(NC(C)=O)c2)nc2c([nH]c3ccccc32)c1=O | -1.95 |
| COc1cc(C2Nc3ccccc3NC3=C2C(=O)CC(C)(C)C3)cc(OC)c1OC(C)=O (centres unmarked) | 19.3 |
| COCCNC(=O)Cn1cc(C=C2C(=O)NC(=O)NC2=O)c2ccccc21 | 18.1 |
| O=C(N/N=C/c1cccc(NC(=O)c2ccc(Cl)cc2)c1)c1ccc(O)cc1 | 9.71 |
| Cc1c(Cl)cccc1NC(=O)Nc1ccc(C(N)=O)cc1 | 13 |
| O=C(Nc1ccc(-n2ccnc2P(=O)(O)c2ccccc2)cc1)c1ccccc1Br | -14.9 |
| COc1cc(C(=O)Nc2cccc(-c3cn4cccnc4n3)c2)cc(OC)c1OC | -1.35 |

| Compound | hERG current change (%, negative = inhibition) at 10uM [%] |
| --- | --- |
| CCN(CC(=O)Nc1ccc(OC)cc1)CC(=O)Nc1cccc(C#N)c1 | 0.389 |
| CCN(CC)S(=O)(=O)c1ccc(N)cc1 | 8.97 |
| O=C(/C=C/c1cnc2ccccc2n1)NC12CC3CC(CC(C3)C1)C2 | -13.1 |
| O=C(CN1CCN(Cc2ccccc2)CC1)c1ccccc1 | 1.35 |
| CCCCn1c(O)c(C(C)=NCCN2CCOCC2)c(=O)[nH]c1=O | -14.8 |
| COc1ccccc1NS(=O)(=O)c1ccccc1C#N | 11.2 |
| CCCOC(=O)Oc1ccc2c(=O)c(Oc3cc(C)cc(C)c3)coc2c1 | -0.543 |
| COc1cc(OC)cc(C(=O)Nc2ccccc2NC(C)=O)c1 | 15.6 |
| C=CCNC(=O)c1cc(=O)c2ccccc2o1 | 6.24 |
| CCOC(=O)C1CCCN(S(=O)(=O)c2ccc3c(c2)NC(=O)CO3)C1 (centres unmarked) | -1.47 |
| CCOC(=O)Cc1nc(-c2ccccc2)n[nH]1 | 20 |
| CC1(C)CNC(=O)c2sc(NC(=O)c3ccccc3)nc2C1 | 13.3 |
| CC1CCCC/C1=N/Nc1ccc([N+](=O)[O-])cc1[N+](=O)[O-] (centres unmarked) | -1.11 |
| CCC(C)NC(=O)[C@@H]1CSC2c3ccccc3C(=O)N21 (some centres unmarked) | -2.29 |
| COc1cccc(OC)c1C(=O)NC(=O)Nc1c(F)cc(F)cc1F | 8.36 |
| O=C(NC1=NCCS1)C1CCN(S(=O)(=O)c2ccccc2C(F)(F)F)CC1 | 6.92 |
| CCN(CC)CCOC(=O)C1(c2ccccc2)CCOCC1.Cl | 10.5 |
| O=C(COC(=O)Cn1[nH]c(=O)c2ccccc2c1=O)Nc1c(Cl)cccc1C(F)(F)F | -3.08 |
| Cc1nn(C(=O)c2cccnc2)c(C)c1Sc1ccc(Br)cc1 | -16.3 |
| CCOC(=O)Nc1nc2ccccc2s1 | 7.09 |
| O=C(O)C1CCC(CN(Cc2cccc(Br)c2)C(=S)Nc2ccccc2F)CC1 (centres unmarked) | 28.8 |
| O=C(Cn1[nH]c(=O)c2ccccc2c1=O)NNC(=O)c1ccccc1 | 5.57 |
| CC(C)c1cc(C(=O)N/N=C/c2ccoc2)cs1 | 0.319 |

| Compound | hERG current change (%, negative = inhibition) at 10uM [%] |
| --- | --- |
| O=C(NCc1ccc2c(c1)OCO2)C1CCCN1C(=O)Nc1cccc(F)c1 (centres unmarked) | -30.2 |
| O=C(COC(=O)c1ccccc1SCC(=O)N1CCCC1)Nc1ccccc1 | -5.59 |
| CCOc1ccc(S(=O)(=O)NCCc2cn3ccccc3n2)cc1 | -11 |
| CC(C)C1COS(=O)(=O)NC1CC(=O)SC(C)(C)C (centres unmarked) | 5.24 |
| C/C(=N\NC(=O)c1cccc(S(=O)(=O)N2CCCC2)c1)c1ccc(C)cc1 | -50.4 |
| O=C(CCCN1C(=O)/C(=C\c2cccs2)SC1=S)Nc1ccccn1 | 28.1 |
| CC(=O)CSc1ncnc2nc[nH]c12 | 13 |
| CCN1C(=O)/C(=C/c2nc3ccccc3c(=O)n2-c2ccccc2)c2ccccc21 | 1.52 |
| COc1ccc(-c2ocnc2C(=O)Nc2ccc(N3CCOCC3)cc2N2CCOCC2)cc1OC | -30.5 |
| Cc1ccc(C(=O)OCC(=O)NNC(=O)c2ccc([N+](=O)[O-])cc2)o1 | 2.78 |
| CCOc1ccc(OC(=O)c2cccc(S(=O)(=O)N3CCN(C)CC3)c2)cc1 | -12.6 |
| O=C(CN1C(=O)c2cccnc2Oc2ccc(Cl)cc21)NCCCc1ccccc1 | -4.2 |
| COc1cc(OC)cc(N2CC(C)(C)C2=O)c1 | 18 |
| COc1cc(/C=C2\SC(=S)N(NS(=O)(=O)c3ccccc3)C2=O)cc(OC)c1OC | 1.93 |
| COc1ccc(C(=O)CCC(=O)Nc2cccc(Cl)c2)cc1 | 6.16 |
| COc1ccccc1N1CCN(c2cc(=O)n(-c3ccc(Br)cc3)c(=O)[nH]2)CC1 | 0.906 |
| Cc1ccc(C(=O)OCC(=O)N2CCOCC2)c(C)c1 | 21.8 |
| CC1CCCCC1NC(=O)C1CCN(S(=O)(=O)c2cccc3nsnc23)CC1 (centres unmarked) | 1.71 |
| CCOc1ccc(-c2cnc3n2CCC3)cc1.Cl | -18.3 |
| Cc1cccc(NC(=O)c2ccc(N3C(=O)C4C5C=CC(C6CC56)C4C3=O)cc2)c1 (centres unmarked) | 8.36 |
| CCOC(=O)c1cnc2ccccc2c1Nc1ccc2c(c1)OCCO2 | -12.3 |
| CCN1CCCC1CNC(=O)Cn1nc(C)n2c(cc3cc(C)ccc32)c1=O (centres unmarked) | -25 |
| Cc1ccccc1OCCC(=O)OCC(=O)N1CCN(S(=O)(=O)c2ccc(Cl)cc2)CC1 | -13.1 |

| Compound | hERG current change (%, negative = inhibition) at 10uM [%] |
| --- | --- |
| O=C(NCCN1CCOCC1)c1ccc2c(c1)N(Cc1ccc(Cl)cc1)CCS2 | -29.8 |
| O=C(CSc1nccn1Cc1ccccc1)Nc1nccs1 | -5.7 |
| CCOC(=O)c1ccccc1NC1CC(=O)N(c2ccccc2C)C1=O (centres unmarked) | -0.773 |
| C/C(=N\NC(=O)CSCc1ccc(Cl)cc1)c1ccc(NC(=O)c2ccccc2)cc1 | 18.9 |
| CCNS(=O)(=O)c1ccc(CCC(=O)N2CCN(c3cc(Cl)ccc3C)CC2)cc1 | 13.4 |
| Oc1ccc(N=Nc2ccc3c(c2)OCCO3)c2cccnc12 | 11.9 |
| O=C(CN1C(=O)c2ccccc2S1(=O)=O)c1ccc(F)cc1 | 10.6 |
| CCCCNC(=O)CC1SC(=NCC)N(CC)C1=O (centres unmarked) | 6.63 |
| CCn1nnc2c(=O)oc3ccccc3c21 | 6.46 |
| COC(=O)/C=C1\SC(N)=NC1=O | 7.71 |
| CC(C)CC(=O)N1CCN(Cc2ccc3ccccc3c2)CC1 | -1.76 |
| CCOC(=O)c1c(N)sc(C(=O)N2CCCCC2)c1C | 8.81 |
| Cc1nn(-c2ccc(F)cc2)c2sc(C(=O)O)cc12 | 11.6 |
| CCOc1ccc(C(=O)NCC(C)NC(=O)c2ccc(OCC)cc2)cc1 (centres unmarked) | 24.5 |
| COc1cc(NS(=O)(=O)c2ccc(N=Cc3c(C)[nH]n(-c4ccccc4)c3=O)cc2)nc(OC)n1 | -4.88 |
| O=C(C[n+]1ccccc1)c1ccc(-c2ccccc2)cc1.[Br-] | -21.4 |
| CN(Cc1ccccc1)C(=O)c1[nH]cnc1C(=O)NCCCCCNC(=O)OC(C)(C)C | -2.63 |
| CCOC(=O)CCNC(=O)N1CCCC(C(=O)c2ccccc2SC)C1 (centres unmarked) | 5.51 |
| Cc1ccc(OCCn2c(C3CC(=O)N(Cc4ccccc4)C3)nc3ccccc32)cc1 (centres unmarked) | -12.6 |
| C=CCN1C(=O)S/C(=C\c2ccc(N3CCOCC3)cc2C)C1=O | -4.5 |
